Experiment in all cases: SEC-MALS
Data set [1] concerns the molecule itself.
Data set [2] deals with the molecule itself. This is another data set of the same source.
Data set [3] concerns the molecule itself. The source holds these as a separate data set.
A further data set deals with T1, Full-length human IKK2 (human, UniProt O14920 1-756).
T1 sequence (looked up): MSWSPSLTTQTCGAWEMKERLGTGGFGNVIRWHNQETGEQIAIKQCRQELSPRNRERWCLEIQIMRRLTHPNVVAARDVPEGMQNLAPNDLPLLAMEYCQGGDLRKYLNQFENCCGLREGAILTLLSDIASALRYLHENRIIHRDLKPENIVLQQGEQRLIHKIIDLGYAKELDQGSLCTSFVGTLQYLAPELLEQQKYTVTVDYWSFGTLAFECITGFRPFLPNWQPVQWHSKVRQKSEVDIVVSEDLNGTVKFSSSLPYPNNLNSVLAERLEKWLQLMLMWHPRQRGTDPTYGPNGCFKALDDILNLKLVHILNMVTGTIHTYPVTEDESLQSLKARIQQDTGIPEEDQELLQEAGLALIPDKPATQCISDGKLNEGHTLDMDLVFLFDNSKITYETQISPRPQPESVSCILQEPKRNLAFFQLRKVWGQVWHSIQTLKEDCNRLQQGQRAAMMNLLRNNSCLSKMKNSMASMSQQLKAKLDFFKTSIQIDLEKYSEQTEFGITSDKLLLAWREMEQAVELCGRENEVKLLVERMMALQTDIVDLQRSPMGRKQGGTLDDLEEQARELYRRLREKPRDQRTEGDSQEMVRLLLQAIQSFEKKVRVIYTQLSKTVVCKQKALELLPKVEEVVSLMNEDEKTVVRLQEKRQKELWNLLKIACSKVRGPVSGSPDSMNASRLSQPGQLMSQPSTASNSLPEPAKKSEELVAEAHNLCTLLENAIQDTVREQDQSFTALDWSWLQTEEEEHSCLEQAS

Read-outs that look alike come from different tables or passages of the source.

In general, stoichiometry N refers to the number of molecules, sites or subunits per partner or assembly.

B1: NEMO^A162P (natural protein)
chain: not shown
For B1, the binding result in the data set “SEC-MALS [1]” is reported as “binds”.

B2: NEMO^R175P (natural protein)
chain: not shown
Take B2: the binding result in “SEC-MALS [2]” was “binds”.

B3: NEMO^Q157P (natural protein)
chain: not shown
Consider B3, for which the binding result in the data set “SEC-MALS [3]” is recorded as “binds”.

B4: NEMO^L227P (natural protein)
chain: not shown
In the case of B4, the binding result in the data set “SEC-MALS [3]” and with Full-length human IKK2 was “binds” throughout.

B5: NEMO^[…] (domain or fragment)
chain: not shown
As for B5, the “stoichiometry N” value in “SEC-MALS [2]” turned out to be 3. Besides, in the data set with Full-length human IKK2, the binding result is listed as “binds”.

Values taken from PMC7994000 (Biochimica et biophysica acta. Proteins and proteomics, 2020).
